# Data published in PubChem BioAssay AID1460 (National Center for Advancing Translational Sciences (NCATS), 2008).
# Values joined by “and” are separate entries in the source; they are usually repeats but may differ in a detail not shown here. Identical values can stand only once. In all, about 270,000 compounds went through this assay and about 5,800 (2.1%) were called active. The shares of active, inactive and inconclusive entries below differ from those in the screen. Calls follow the shape of the dose curve; as a rule, active = well fitted inhibition curve with a large enough effect; inconclusive = small, poorly fitted or top-dose-only effect; inactive = flat fitted curve, though single readings scatter. A potency beside an inconclusive call is a rough fit, not a confirmed value.
# Target: Microtubule-associated protein tau (Homo sapiens) (UniProt P10636)
# Assay: qHTS for Inhibitors of Tau Fibril Formation, Thioflavin T Binding; also: nearly all actives have a fitted effect of over 55% in size
# Conditions: recombinant tau K18 P301L (four-repeat tau fragment), heparin-induced fibrillization, ThT fluorescence; series mostly up to 57.4 µM; activity, negative = inhibition: at the top concentration
# In short: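 Aggregation was driven by heparin (20 uM final) acting on recombinant tau […] bearing P301L in 100 mM sodium acetate pH 7; fibrils were detected with Thioflavin T.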
# % is scaled to controls: 0 for no effect and ±100 for the full control effect; potency is read from the fitted curve at half-maximal effect; tags tell the direction and shape of the fitted curve.
# UniProt P10636, sequence (P10636 whole entry, looked up): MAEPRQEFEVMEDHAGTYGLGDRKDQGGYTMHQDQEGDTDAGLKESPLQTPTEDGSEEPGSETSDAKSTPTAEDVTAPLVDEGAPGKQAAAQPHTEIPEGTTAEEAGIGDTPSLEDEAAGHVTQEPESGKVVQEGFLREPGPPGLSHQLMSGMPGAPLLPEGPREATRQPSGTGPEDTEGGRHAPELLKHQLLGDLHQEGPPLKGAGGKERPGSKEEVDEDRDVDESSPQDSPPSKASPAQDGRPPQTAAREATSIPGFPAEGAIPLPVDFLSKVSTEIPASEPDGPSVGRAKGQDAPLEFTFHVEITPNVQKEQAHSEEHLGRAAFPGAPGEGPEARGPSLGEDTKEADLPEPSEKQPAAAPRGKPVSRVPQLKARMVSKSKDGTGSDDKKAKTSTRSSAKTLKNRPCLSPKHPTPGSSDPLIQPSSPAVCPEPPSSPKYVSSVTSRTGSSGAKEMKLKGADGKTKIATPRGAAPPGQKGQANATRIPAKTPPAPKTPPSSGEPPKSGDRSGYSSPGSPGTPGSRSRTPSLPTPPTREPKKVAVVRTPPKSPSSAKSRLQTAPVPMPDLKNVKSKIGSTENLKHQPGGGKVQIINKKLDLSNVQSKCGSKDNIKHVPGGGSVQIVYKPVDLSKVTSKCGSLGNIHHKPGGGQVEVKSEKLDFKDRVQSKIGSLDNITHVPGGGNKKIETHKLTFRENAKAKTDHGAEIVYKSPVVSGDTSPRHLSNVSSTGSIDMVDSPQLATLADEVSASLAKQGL
SMILES,Potency,"activity, negative = inhibition"
COc1cccc(C2=NNC(=NCc3ccccc3)SC2)c1,"inconclusive: 14.1 µM [inhibitor, partial curve]",
OC(c1ccccc1)(c1ccccc1)C1CCN(C(=S)NCCc2ccccc2)CC1,,inactive: -8.4%
Cc1cc(C)n2ncc(/C(N)=N/OC(=O)Nc3ccccc3)c2n1,"inconclusive: 15.8 µM [inhibitor, single point]",
CCOc1cccc(C(=O)Nc2ccc3oc(Cc4ccc(Cl)cc4)nc3c2)c1,"inconclusive: 14.1 µM [inhibitor, partial curve]",
Brc1cccc(-c2nnc3sc(CNCc4ccco4)cn23)c1,,inactive: -4.59%
Cc1ccc(N2C(=O)c3cccc4cccc(c34)C2=O)cc1,,inactive: -4.73%
Cc1cccc(NC(=S)NC(=O)CCc2ccccc2)c1,"inconclusive: 12.6 µM [inhibitor, partial curve]",
Cn1cnnc1Sc1ccc(/C=C/C(=O)c2ccc(O)cc2)cc1[N+](=O)[O-],active: 14.1 µM,
CCOC(=O)N1CCC(Nc2ncnc3c2cnn3-c2ccc(C)cc2C)CC1,"inconclusive: 17.8 µM [inhibitor, partial curve]",
COc1ccc(-c2cc(-c3ccc(F)cc3)nc(N3CCN(C)CC3)n2)cc1,,inactive: -11.7%
N[C@H](C(=O)O)c1cc(O)cc(O)c1,"inconclusive: 25.1 µM [inhibitor, partial curve] and inconclusive: 20 µM [inhibitor, single point]",
Cc1cc(C)cc(NC(=O)Cn2c3ncccc3c(=O)n2-c2ccc(C)c(C)c2)c1,,inactive: -0.552%
Cc1[nH]nc(N)c1N=Nc1ccc(Br)cc1,active: 11.2 µM,
CCOC(=O)COn1c(=O)c(-c2ccc(OC)c(OC)c2)[n+]([O-])c2ccccc21,"inconclusive: 14.1 µM [inhibitor, partial curve]",
O=C(NCc1ccc(N2CCCC2=O)cc1)NC1CCCCC1,,inactive: -3.81%
CCCCC1=CC2=CC(=O)C(C)(OC(=O)c3cnc4ccccc4n3)C(=O)C2=CO1 (configuration not stated),"inactive and inconclusive: 28.2 µM [inhibitor, single point]",
COc1ccc(-c2nc(NC(=O)C3CCN(c4nc5ccccc5o4)CC3)sc2C)cc1,"inconclusive: 10 µM [inhibitor, partial curve]",
COc1ccc(NC(=O)Nc2ccccc2OCc2cc(=O)n3ccccc3n2)c(OC)c1,"inconclusive: 25.1 µM [inhibitor, partial curve]",
Cc1ccc(-c2cc(C(F)(F)F)c(C#N)c(SCC(=O)O)n2)cc1,"inconclusive: 15.8 µM [inhibitor, single point] and inconclusive: 20 µM [inhibitor, partial curve]",
O=C(NN1C(=O)/C(=C/c2cccs2)SC1=S)c1ccncc1,"inconclusive: 22.4 µM [inhibitor, partial curve, poor fit]",
Nc1c(C(=O)c2ccccc2)sc2snc(SCC(=O)c3ccccc3)c12,active: 7.94 µM,
CCc1ccc(NC(=O)Cn2c(=O)n(CC3CCCO3)c(=O)c3cc(OC)c(OC)cc32)cc1 (configuration not stated),,inactive: -8.62%
CCOC(=O)c1cc(C)sc1/N=C/C1C(=O)CCCC1=O,"inconclusive: 15.8 µM [inhibitor, partial curve]",
CCCn1c(-c2ccncc2)n[nH]c1=S,,inactive: -10.1%

SMILES,Potency,"activity, negative = inhibition"
CCc1nn2c(=O)cc(COc3ccc(/C=C(\C#N)C(=O)Nc4ccc(C)cc4)cc3)nc2s1,"inconclusive: 1.26 µM [inhibitor, full curve]",
c1ccc(-c2nnc(-c3ccccn3)s2)nc1,"inconclusive: 39.8 µM [inhibitor, single point]",
Cc1ccc(S(=O)(=O)c2ccc(Oc3ccccc3)cc2)cc1,,inactive: -5.65%
O=C(NC(=S)Nc1ccccc1C(F)(F)F)c1ccccc1F,,inactive: 0.535%
COc1cccc(NC(=O)Cn2c(=O)n(CC(=O)NCCc3ccccc3)c(=O)c3sccc32)c1,"inconclusive: 3.55 µM [activator, single point]",
Cc1cc(C#N)c(C)c(SCc2[nH]nc3c2C(c2ccccc2)C(C#N)=C(N)O3)n1 (configuration not stated),"inconclusive: 15.8 µM [inhibitor, partial curve]",
O=C(Oc1cccc2ccccc12)c1cc(Cl)nc2ccccc12,"inconclusive: 10 µM [inhibitor, partial curve]",
O=C(N/N=C/c1c[nH]c2ccccc12)c1cc(-c2ccc(-c3ccccc3)cc2)n[nH]1,"inconclusive: 1.41 µM [inhibitor, partial curve, poor fit]",
Cc1nn(Cc2cccc(C(=O)N3CCCC(C)C3)c2)c(C)c1[N+](=O)[O-] (configuration not stated),,inactive: 6.62%
O=C(CSc1nnnn1-c1ccccc1)Nc1ncc2c(n1)CC(c1ccco1)CC2=O (configuration not stated),"inconclusive: 35.5 µM [inhibitor, partial curve, poor fit]",
CCOc1cc(C2C(C(=O)OC)=C(C)NC3=C2C(=O)c2ccccc23)c(Br)cc1O (configuration not stated),active: 5.01 µM,
CC(C)NC(=O)Cn1nc(N2CCN(c3ccccc3)CC2)ccc1=O,,inactive: -7.81%
O=c1c(=O)n(Cc2c(F)cccc2Cl)ccn1Cc1ccccc1,,inactive: -16.6%
CC(=O)N1CCc2c(sc3c2c(=O)n(CCc2ccccc2)c(=O)n3Cc2cccc(C)c2)C1,"inconclusive: 28.2 µM [inhibitor, partial curve]",
CCN(CC)c1ccc(NC(=O)CN2C(=O)c3cccnc3Sc3ccccc32)c(C)c1,"inconclusive: 10 µM [inhibitor, partial curve, poor fit]",
NC(=O)CSc1nnc2ccc(-c3ccc(F)cc3)nn12,,inactive: 4.87%
CCCOc1ccc(Cc2c(Cl)nc(SC)nc2N(C)C)cc1,"inconclusive: 10 µM [inhibitor, partial curve]",
C/C(=N\OC(=O)c1ccc(C)cc1)c1sc(C)nc1C,"inconclusive: 1.26 µM [inhibitor, full curve]",
COC(=O)c1ccc(CNC(=O)COC(=O)c2ccc(N(C)C)cc2)cc1,"inconclusive: 2.51 µM [inhibitor, full curve]",
O=C(CNC(=O)c1cccs1)c1ccc([N+](=O)[O-])cc1,"inconclusive: 25.1 µM [inhibitor, partial curve]",
COC(=O)c1[nH]c2ccccc2c1NC(=O)CN1CCCc2ccccc21,"inconclusive: 17.8 µM [inhibitor, single point]",
Cc1ccc(-c2cc(C(=O)N/N=C/C=C/c3ccccc3)n[nH]2)o1,"inconclusive: 15.8 µM [activator, partial curve]",
Cc1nc(-c2cc(-c3nc(-c4ccc(C(C)(C)C)cc4)no3)no2)cs1,"inconclusive: 2.24 µM [inhibitor, full curve]",
COc1cc2c3nnc(-c4ccc(F)cc4)c-3cn(Cc3cccc(C)c3)c2cc1OC,"inconclusive: 17.8 µM [inhibitor, partial curve]",

SMILES,Potency,"activity, negative = inhibition"
O=C(NC(=S)Nc1ccc2oc(-c3ccncc3)nc2c1)c1ccccc1F,"inconclusive: 7.94 µM [inhibitor, full curve]",
O=[N+]([O-])c1cccc(/C=N/n2cnnc2)c1,,inactive: -10.4%
COc1cccc(Nc2nc(-c3ccc4c(c3)OCCO4)cs2)c1,active: 7.08 µM,
Cc1cc(Cl)ccc1NS(=O)(=O)c1ccc2c(c1)CC(C)N2C(=O)C1CCC1 (configuration not stated),,inactive: -3.32%
CS(=O)(=O)N(CC(=O)Nc1ccc2c(c1)OCO2)c1ccccc1,"inconclusive: 7.08 µM [inhibitor, partial curve]",
CC(=NCc1ccco1)c1c(O)n(C2CCCCC2)c(=O)[nH]c1=O,,inactive: -9.5%
C/C(=N\Nc1ccc([N+](=O)[O-])cc1)c1cc2ccccc2o1,active: 2.82 µM,
O=C(COC(=O)C1CC(O)CN1S(=O)(=O)c1ccc(Cl)cc1)c1ccccc1 (configuration not stated),,inactive: -17.7%
Cc1oc(C(=O)O)cc1COc1ccc2c3c(c(=O)oc2c1C)CCCC3,"inconclusive: 15.8 µM [inhibitor, partial curve]",
Clc1ccc(-c2n[nH]c3c2CCC3)cc1Cl,"inconclusive: 2.82 µM [inhibitor, full curve]",
Oc1[nH]c2ccccc2c1C=Nc1ccc2c(c1)OCO2,active: 7.94 µM,
CC(=O)Nc1ccc(Nc2nnc(-c3ccc(C)c(S(N)(=O)=O)c3)c3ccccc23)cc1,"inconclusive: 17.8 µM [inhibitor, single point]",
COc1cc(/C=N/NC(=O)c2sc3nc(C)cc(C)c3c2N)ccc1O,"inconclusive: 15.8 µM [inhibitor, partial curve]",
CCn1cc2nc(SCc3ccc(F)cc3)n(Cc3ccc(Cl)cc3)c(=O)c2n1,,inactive: 9.28%
CCOc1ccc(Cl)cc1/C=N/NC(N)=O,,inactive: 4.32%
CC(C)CC(=O)/C=C/n1c(=S)oc2ccccc21,"inconclusive: 17.8 µM [inhibitor, partial curve]",
CCOC(=O)c1ccc(CN(Cc2ccc(C)cc2)S(=O)(=O)c2ccc(NC(C)=O)cc2)cc1,,inactive: 4.48%
CSc1cccc(NC(=O)C2CCN(S(=O)(=O)c3ccc4[nH]c5c(c4c3)CCCCC5)CC2)c1,,inactive: 5.76%
Cc1ccc(N=Nc2c(O)ccc3n[nH]nc23)cc1,active: 3.55 µM,
COc1ccccc1NC(=O)CN1CC(=O)Nc2ccccc21,,inactive: -8.67%
CCOc1ccccc1-n1nnnc1SCC(=O)NC(=O)Nc1ccc2c(c1)OCCO2,,inactive: -5.02%
Cc1cnc(C(=O)Nc2ccc(N3CCCCC3)cc2)cn1,"inconclusive: 8.91 µM [inhibitor, partial curve]",
O=C(Nc1nnc(S(=O)(=O)N2CCCCCC2)s1)c1ccccc1Br,"inconclusive: 15.8 µM [inhibitor, partial curve]",
O=C(C1CCN(S(=O)(=O)Cc2ccccc2)CC1)N1CCN(c2cccc(Cl)c2)CC1,,inactive: 10.3%
